The text below walks through data of publication PMC10036635, “FTD-tau S320F mutation stabilizes local structure and allosterically promotes amyloid motif-dependent aggregation” (Nature Communications, 2023).

The data set deals with the molecule itself. The data set is described as follows: ThT fluorescence aggregation assay + negative-stain TEM; FL 2N4R tau at 40 µM, 2 mM TCEP, 25 µM ThT, 37 °C with intermittent shaking, 2 weeks; endpoint ThT fluorescence and TEM.

B1: full-length 2N4R S320F tau (natural protein)
chain: not shown
notes: microtubule-associated protein tau, human, 2N4R isoform, FTD-tau mutation S320F; also called FL 2N4R S320F tau; source: E. coli BL21-Gold (DE3), purified (Ni-NTA, HiTrap SP HP, Superdex 200)
Consider B1, for which the binding result was “binds”.

B2: full-length 2N4R S320I tau (natural protein)
chain: not shown
notes: microtubule-associated protein tau, human, 2N4R isoform; also called FL 2N4R S320I; source: E. coli BL21-Gold (DE3), purified (Ni-NTA, HiTrap SP HP, Superdex 200)
As for B2, the binding result is “binds”.

B3: full-length 2N4R S320I_I328V tau (natural protein)
chain: not shown
notes: microtubule-associated protein tau, human, 2N4R isoform; source: E. coli BL21-Gold (DE3), purified (Ni-NTA, HiTrap SP HP, Superdex 200)
For the protein B3, the binding result is recorded as “binds”.

B4: full-length 2N4R S320V tau (natural protein)
chain: not shown
notes: microtubule-associated protein tau, human, 2N4R isoform; also called FL 2N4R S320V; source: E. coli BL21-Gold (DE3), purified (Ni-NTA, HiTrap SP HP, Superdex 200)
Regarding B4, the binding result is recorded as “binds”.
